In ChEMBL document CHEMBL4888484, “Replenishing the malaria drug discovery pipeline: Screening and hit evaluation of the MMV Hit Generation Library 1 (HGL1) against asexual blood stage Plasmodium falciparum ,using a nano luciferase reporter read-out” (2022):
The campaign covered roughly 150,000 compounds. About 540 (0.36%) showed an effect of 50% or more. The list shows a part of the results.

These compounds were tested on Plasmodium falciparum (assay: Primary screen in NF54 nanoGlo assay, in single point, at 2uM, 72h; a lower Z score goes with more inhibition). Details: timepoint 72 hour.
Assay type: functional, Erythrocyte

SMILES | % Inhibition | Z score
C[C@H](NC(=O)Cc1nnc(-c2ccsc2)o1)c1ccc(F)cc1 | -7% | 0.69
CC1CCC(C)N(C(=O)c2ccc3nnnn3c2)C1 (stereo unspecified) | -10% | 1.86
CCNc1cc(CNC(=O)Nc2conc2C)ccn1 | -2% | 0.26
NC(=O)c1cnn(CCc2noc(C3(c4ccccc4)CC3)n2)c1 | -5% | 0.77
Cc1nc(N[C@H]2CCCC[C@@H]2OCc2ccccc2)c2cccnc2n1 | -2% | 0.37
O=C(Nc1ccc(Cl)c(Cl)c1)c1no[n+]([O-])c1C(=O)Nc1ccc(Cl)c(Cl)c1 | -4% | 0.6
Cc1cc(-c2c(-c3ccccc3)[nH]c3c2c(=O)n(C)c(=O)n3C)c(C)s1 | -13% | 1.97
CC(C)(C)c1ccc(OCc2nnc3n2CCOC3)cc1 | -12% | 1.82
COc1cc(C(=O)N(C)c2ccc(OC(=S)N3CCOCC3)cc2)cc(OC)c1OC | -2% | 0.37
Cc1noc(C)c1[C@@H](C)CNc1cc(C#N)ccn1 | -13% | 2.29
COc1ccc(NC(=O)Cn2cnc3c(c2=O)CN(Cc2ccc(C)cc2)CC3)cc1 | -4% | 0.65
NC1=C(c2nc3ccccc3[nH]2)C(=O)CN1c1ccccc1 | -1% | 0.08
Cc1ccc(C(=O)N(C)CCC2CCOCC2)s1 | -8% | 1.36
CCOc1ccc([C@H]2CC(=O)N(Cc3ccccc3C)c3c2c(C)nn3-c2nc(C)cc(C)n2)cc1 | -10% | 1.41
Cc1ccc2c(c1)CCCN2C(=O)C1C2C=CC(O2)C1C(=O)O (stereo unspecified) | -2% | 0.3
COc1ccc(OC)c(CN2CCc3[nH]cnc3[C@@H]2c2ccc(C)o2)c1 | -16% | 2.07
CN(C)c1ncccc1CNc1ccc(C(=O)Nc2ccccc2)nn1 | -22% | 1.99
CCn1cc(C2CCN(C(=O)NCc3nnc([C@@H]4CCCO4)[nH]3)CC2)cn1 | 1% | -0.24
Cc1ccc(N2CCCN(Cc3ccc(C(F)(F)F)cc3)C2=O)c(NC(=O)c2ccc(F)cc2F)c1 | -5% | 0.78
CCCCNc1ccc(S(=O)(=O)N2CCCC2)cc1NC(=O)COc1ccccc1OCC | -14% | 1.94
COc1ccc(CN(Cc2ccco2)C(=O)CC(C)C)cc1OCc1nc(CO)cs1 | 28% | -3.42

SMILES | % Inhibition | Z score
CCn1cncc1CNC1CCN(c2ccc3c(c2)CCC3)CC1 | -14% | 1.42
Oc1cccc(-c2cc(C[C@@H]3CC[C@H](O)[C@@H](CNC4CCC4)O3)no2)c1 | 4% | -0.67
Cn1ccc(COC(=O)Cc2cccc(Cl)c2)n1 | -6% | 0.58
O=C(Cn1ccn2cc(Br)cc2c1=O)Nc1ccc(Cl)c(Cl)c1 | -4% | 0.61
O=C1C[C@H](c2ccc(O)c(Cl)c2)c2cnn(Cc3ccccc3)c2N1 | 0% | 0.02
CN(C)C[C@H]1CN(CC(=O)N(C)Cc2cccs2)CCO1 | -7% | 0.72
CCC(C)(C)NC(=O)[C@H](C)NC(=O)c1ccc(Br)o1 | -9% | 0.8
CCc1nnc(CN(C)Cc2c(C)nn(C)c2Cl)o1 | 2% | -0.19
N[C@@H](CCC(=O)O)c1ccc(Br)cc1 | -11% | 1.67
c1coc(CCc2nnc3n2CCOC3)c1 | 0% | -0.02
CCn1nc(C(=O)O)c(C)c1Oc1ccc(NC(=O)CC(C)C)cc1S(=O)(=O)NC(C)(C)C | 3% | -0.44
Cc1nc2c(C(=O)NC[C@H]3CCN(c4cnn(C)c(=O)c4)C3)cccc2[nH]1 | -15% | 1.89
COC1CCN(C2CN(C(=O)NC(c3ccccc3)c3ccccc3)C2)CC1 | -12% | 2.23
CC(C)c1noc(NC[C@H]2CCCCS2(=O)=O)n1 | -2% | 0.2
CC(=O)N1CCO[C@H](C(=O)N2CCN(c3cccc(F)c3)CC2)C1 | 1% | -0.24
Cc1ncc(CNC(=O)N2CC[C@H](OCCC(C)C)C2)s1 | -8% | 0.93
CCc1cccc2c([C@H](CC(=O)NCCN3CCOCC3)c3ccc(F)cc3)c[nH]c12 | 3% | -0.38
Cc1ccc2oc(CN(CCC#N)CCC#N)cc2c1 | -7% | 1.24
Cn1cc([C@H]2OCC[C@@H]2CNc2ncnc3c2ncn3C2CC2)cn1 | 2% | -0.26
CCN1CCN(C(=O)CCC2CCN(C(=O)c3cc(C)[nH]c(=O)c3)CC2)CC1 | -3% | 0.53
O=C(Nc1nnc(-c2ccc3c(c2)OCO3)s1)[C@@H]1CCCN1C(=O)Nc1ccc(Cl)cc1Cl | 4% | -0.6

SMILES | % Inhibition | Z score
COCCn1c(N)c(N(Cc2ccccc2)C(=O)c2occc2C)c(=O)[nH]c1=O | -4% | 0.62
Cc1nc(C(=O)N[C@H]2CCc3cn(C(C)C)nc3C2)c(C)o1 | -8% | 1.45
CC(C)C(=O)NCCNC(=O)C1=NN(C)C(=O)CC1 | -6% | 0.88
CCc1cc(C#N)ccc1NC(=O)NC[C@H]1COCCO1 | 0% | 0
Cc1ccc(CN(CCO)C(=O)COC[C@H]2CCCCO2)s1 | 5% | -0.74
Cc1ccc(C2CCN(S(C)(=O)=O)CC2)cn1 | -11% | 1.08
CCC(NC(=O)c1cc(C(C)(C)C)nc(=O)[nH]1)[C@H]1C[C@@H](O)C1 (stereo partly specified) | -5% | 0.84
O=C(c1ccccc1)c1c[nH]c(C(=O)NCc2cccnc2)c1 | 30% | -3.88
CS(=O)(=O)N1CCC(C(=O)N2CC(c3nc(-c4ccccc4)no3)C2)CC1 | -10% | 1.91
Cc1noc(C)c1CN1C[C@H]2CC[C@@H](C1)N(Cc1snnc1C(C)C)C2 | -3% | 0.4
CCn1cc(-c2ccccc2)cc1C(=O)N[C@@H](C)c1ccccn1 | -7% | 1.17
O=C1CCC(=O)N1c1cccc(S(=O)(=O)N2CCOCC2)c1 | -9% | 1.12
Cn1c(C(=O)N2CCCC2)nnc1N1CCC(Oc2ccccc2Cl)CC1 | -13% | 2.32
Cc1ncsc1CN1CCC(n2cc(Br)cn2)CC1 | -15% | 1.6
CC(C)(C)c1cc(CN2CC[C@H]3CC[C@@H](C2)N3)n[nH]1 | -12% | 1.46
Cc1cccc(NC(=O)Cn2cnc3cc4c(cc32)OCCCO4)c1C | -12% | 1.7
COc1cc(C)ccc1OCc1nc(C(=O)N[C@@H](C)C2CC2)co1 | 2% | -0.39
CN(C)C1CCN(C(=O)c2ccccc2-c2ccccc2)CC1 | -9% | 1.12
CCCCc1noc([C@H](C)N2CCOc3cc(OC)ccc3C2)n1 | 0% | 0.05
Cc1cccc(NC(=O)CCc2c(C)nn(-c3ccc4nnc(C)n4n3)c2C)c1C | -16% | 2.05
CNC(=O)C[C@H]1CCN(C(=O)c2ncccc2O)C1 | -13% | 2.59

SMILES | % Inhibition | Z score
Cc1onc(N)c1S(=O)(=O)N1CC2(CCC2)[C@@H]1C(C)C | -5% | 0.58
CCC[C@H]1CN(Cc2nnc(C)n2C)C[C@@H]1NC(=O)C1CCC1 | -1% | 0.1
CC1CCN([C@H]2CS(=O)(=O)C[C@@H]2S(=O)(=O)c2cccs2)CC1 | 7% | -0.88
Cc1cc(S(=O)(=O)[C@@H](CN2C(=O)c3ccccc3C2=O)c2cccnc2)ccc1F | -9% | 1.27
C#CCNC(=O)c1cc(-c2ccc3c(c2)OCO3)n(CC)n1 | -22% | 1.98
COc1cncc(O[C@H]2CCCN(S(=O)(=O)C3CC3)C2)n1 | -9% | 1.53
COc1ccc(-c2noc(Cn3cnc4ccccc4c3=O)n2)cc1OC | -5% | 0.61
CCC(=O)N(Cc1c(-c2ccccc2)noc1N(CC)CC)C(C)C | -17% | 1.98
CC(C)(O)Cn1nc(-c2c[nH]c3ccccc23)nc1C[C@H]1CCCOC1 | -5% | 0.77
COC(=O)c1c(NS(=O)(=O)C[C@H](C)OC)c2cccnc2n1C | -1% | 0.15
Cc1cc2nc(N3CCOCC3)n(CC(=O)Nc3cccc(F)c3)c(=O)c2n1C | -18% | 1.98
Cc1cccc(-c2ncc(C(=O)N3CCC(c4nncn4C)CC3)c(O)n2)c1 | 1% | -0.06
CC(C)C[C@@H](C(=O)Nc1cccc(NC(=O)C(C)C)c1)N1CCCCC1=O | -5% | 1.16
CO[C@H]1[C@@H]2CC[C@H]1CN(Cc1ccccc1OCC(=O)N1CCCCC1)C2 | -8% | 1.56
O=C(Nc1ccc(Cl)c(Cl)c1)N1CCC[C@H]1c1ccc2c(c1)OCCCO2 | 0% | 0.07
CCCC(=O)Nc1nnc(CC(=O)N2CCCC2)s1 | 0% | 0.02
Cc1cc(F)ccc1C(=O)N1CCCC[C@@H]1CCN1CCCC1 | 0% | 0.03
CCN1CCN(C(=O)c2csc(NC(=O)c3ccccc3C)n2)CC1 | 1% | -0.1
O=C(CN1CC2(CCCCC2)CC1=O)N1CCN(C(=O)c2ccco2)CC1 | 0% | -0.02
COc1nscc1-c1ncc(C(C)C)s1 | -9% | 0.91
